Measurements as given in patent publication US20050074865A1 (COMPOUND THERAPEUTICS, published 2005).

Biological target: recombinant human TNFα (RDI) (human, UniProt P01375 in part)
Assay: ELISA: wells coated with recombinant human TNFα 1 ug/mL, conditioned medium with 1 mM benzamidine, detection with anti-myc-HRP and TMB, OD 370 nm, triplicates

Sequence of UniProt P01375 (P01375 77-233 limits assumed): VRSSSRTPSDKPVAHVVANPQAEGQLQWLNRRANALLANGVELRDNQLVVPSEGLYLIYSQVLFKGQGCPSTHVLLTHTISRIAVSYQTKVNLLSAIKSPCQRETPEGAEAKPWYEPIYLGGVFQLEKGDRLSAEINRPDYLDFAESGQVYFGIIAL

B1: Trypsinogen-myc-his (human cationic trypsinogen, tgn, expressed from pSecTag2A) (enzyme)
chain: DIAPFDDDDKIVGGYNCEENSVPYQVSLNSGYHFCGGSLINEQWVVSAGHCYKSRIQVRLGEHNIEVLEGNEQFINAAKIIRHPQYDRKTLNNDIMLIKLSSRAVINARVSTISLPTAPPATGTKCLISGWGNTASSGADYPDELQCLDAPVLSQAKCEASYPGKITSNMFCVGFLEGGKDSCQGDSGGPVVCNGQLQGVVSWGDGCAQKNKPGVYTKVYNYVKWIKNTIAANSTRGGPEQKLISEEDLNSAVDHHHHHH
B1: no binding.
